# The list shows a part of the results.
# B1: Gal 8 (Homo sapiens), O00214_1 (protein)
# chain: MMLSLNNLQNIIYNPVIPFVGTIPDQLDPGTLIVIRGHVPSDADRFQVDLQNGSSMKPRADVAFHFNPRFKRAGCIVCNTLINEKWGREEITYDTPFKREKSFEIVIMVLKDKFQVAVNGKHTLLYGHRIGPEKIDTLGIYGKVNIHSIGFSFSSDLQSTQASSLELTEISRENVPKSGTPQLRLPFAARLNTPMGPGRTVVVKGEVNANAKSFNVDLLAGKSKDIALHLNPRLNIKAFVRNSFLQESWGEEERNITSFPFSPGMYFEMIIYCDVREFKVAVNGVHSLEYKHRFKELSSIDTLEINGDIHLLEVRSW
# Key:
# Assay in all cases: glycan array binding signal (z-score within array); higher = stronger binding
# Conditions in all cases: glycan notation: IUPAC condensed, linker removed
# Gal(a1-2)Gal = target: Gal(a1-2)Gal
# Outline: (§1)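 Glycan array binding is given as a within-array Z-score, which can be read as non-binding when negative. The arrays, 3228 of them, came from the Consortium for Functional Glycomics database and were retained only where the protein sequence was available. Z-scores were averaged across arrays of the same protein sequence at different concentrations or buffers and across linkers.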
# Gal(a1-3)Gal = target: Gal(a1-3)Gal
# Outline: as §1
# Gal(a1-3)Gal(b1-3)GlcNAc = target: Gal(a1-3)Gal(b1-3)GlcNAc
# Outline: as §1
# [1] = target: Gal(a1-3)Gal(b1-3)GlcNAc(b1-2)Man(a1-3)[Gal(a1-3)Gal(b1-3)GlcNAc(b1-2)Man(a1-6)]Man(b1-4)GlcNAc(b1-4)GlcNAc
# Outline: as §1
# [2] = target: Gal(a1-3)Gal(b1-3)GlcNAc(b1-3)GalNAc
# Outline: as §1
# [3] = target: Gal(a1-3)Gal(b1-3)GlcNAc(b1-6)GalNAc
# Outline: as §1
# [4] = target: Gal(a1-3)Gal(b1-3)[Fuc(a1-4)]GlcNAc(b1-2)Man(a1-3)[Gal(a1-3)Gal(b1-3)[Fuc(a1-4)]GlcNAc(b1-2)Man(a1-6)]Man(b1-4)GlcNAc(b1-4)GlcNAc
# Outline: as §1
# Gal(a1-3)Gal(b1-4)Glc = target: Gal(a1-3)Gal(b1-4)Glc
# Outline: as §1
# Gal(a1-3)Gal(b1-4)GlcNAc = target: Gal(a1-3)Gal(b1-4)GlcNAc
# Outline: as §1
# [5] = target: Gal(a1-3)Gal(b1-4)GlcNAc(b1-3)GalNAc
# Outline: as §1
# [6] = target: Gal(a1-3)Gal(b1-4)GlcNAc(b1-6)GalNAc
# Outline: as §1
# [7] = target: Gal(a1-3)Gal(b1-4)[Fuc(a1-3)]GlcNAc
# Outline: as §1
# [8] = target: Gal(a1-3)Gal(b1-4)[Fuc(a1-3)]GlcNAc(b1-2)Man(a1-3)[Gal(a1-3)Gal(b1-4)[Fuc(a1-3)]GlcNAc(b1-2)Man(a1-6)]Man(b1-4)GlcNAc(b1-4)GlcNAc
# Outline: as §1
# Gal(a1-3)GalNAc = target: Gal(a1-3)GalNAc
# Outline: as §1
# [9] = target: Gal(a1-3)[Gal(a1-4)]Gal(b1-4)GlcNAc
# Outline: as §1
# [10] = target: Gal(a1-4)Gal(b1-3)GlcNAc(b1-2)Man(a1-3)[Gal(a1-4)Gal(b1-3)GlcNAc(b1-2)Man(a1-6)]Man(b1-4)GlcNAc(b1-4)GlcNAc
# Outline: as §1
# Gal(a1-4)Gal(b1-4)Glc = target: Gal(a1-4)Gal(b1-4)Glc
# Outline: as §1
# Gal(a1-4)Gal(b1-4)GlcNAc = target: Gal(a1-4)Gal(b1-4)GlcNAc
# Outline: as §1
# [11] = target: Gal(a1-4)Gal(b1-4)GlcNAc(b1-2)Man(a1-3)[Gal(a1-4)Gal(b1-4)GlcNAc(b1-2)Man(a1-6)]Man(b1-4)GlcNAc(b1-4)GlcNAc
# Outline: as §1
# [12] = target: Gal(a1-4)Gal(b1-4)GlcNAc(b1-3)Gal(b1-4)Glc
# Outline: as §1
# Gal(a1-4)GlcNAc = target: Gal(a1-4)GlcNAc
# Outline: as §1
# Gal(a1-6)Glc = target: Gal(a1-6)Glc
# Outline: as §1
# Gal(b1-2)Gal = target: Gal(b1-2)Gal
# Outline: as §1
# Gal(b1-3)Gal = target: Gal(b1-3)Gal
# Outline: as §1
# Gal(b1-3)Gal(b1-4)GlcNAc = target: Gal(b1-3)Gal(b1-4)GlcNAc
# Outline: as §1
# [13] = target: Gal(b1-3)Gal(b1-4)GlcNAc(b1-2)Man(a1-3)[Gal(b1-3)Gal(b1-4)GlcNAc(b1-2)Man(a1-6)]Man(b1-4)GlcNAc(b1-4)GlcNAc
# Outline: as §1
# Gal(b1-3)GalNAc = target: Gal(b1-3)GalNAc
# Outline: as §1
# [14] = target: Gal(b1-3)GalNAc(a1-3)[Fuc(a1-2)]Gal(b1-4)Glc
# Outline: as §1
# [15] = target: Gal(b1-3)GalNAc(a1-3)[Fuc(a1-2)]Gal(b1-4)GlcNAc
# Outline: as §1
# [16] = target: Gal(b1-3)GalNAc(b1-3)Gal(a1-4)Gal(b1-4)Glc
# Outline: as §1
# [17] = target: Gal(b1-3)GalNAc(b1-4)Gal(b1-4)Glc
# Outline: as §1
# [18] = target: Gal(b1-3)GalNAc(b1-4)[Neu5Ac(a2-3)]Gal(b1-4)Glc
# Outline: as §1
# Gal(b1-3)GlcNAc = target: Gal(b1-3)GlcNAc
# Outline: as §1
# [19] = target: Gal(b1-3)GlcNAc(a1-3)Gal(b1-4)GlcNAc
# Outline: as §1
# [20] = target: Gal(b1-3)GlcNAc(a1-6)Gal(b1-4)GlcNAc
# Outline: as §1
# [21] = target: Gal(b1-3)GlcNAc(b1-2)Man(a1-3)[Gal(b1-3)GlcNAc(b1-2)Man(a1-6)]Man(b1-4)GlcNAc(b1-4)GlcNAc
# Outline: as §1
# [22] = target: Gal(b1-3)GlcNAc(b1-2)Man(a1-3)[Gal(b1-3)GlcNAc(b1-2)Man(a1-6)]Man(b1-4)GlcNAc(b1-4)[Fuc(a1-6)]GlcNAc
# Outline: as §1
binder,measurement,setting,value
B1,glycan array binding signal (z-score),Gal(a1-2)Gal,-0.187
same,glycan array binding signal (z-score),Gal(a1-3)Gal,-0.252
same,glycan array binding signal (z-score),Gal(a1-3)Gal(b1-3)GlcNAc,0.318
same,glycan array binding signal (z-score),[1],-0.164
same,glycan array binding signal (z-score),[2],-0.079
same,glycan array binding signal (z-score),[3],-0.027
same,glycan array binding signal (z-score),[4],-0.123
same,glycan array binding signal (z-score),Gal(a1-3)Gal(b1-4)Glc,0.16
same,glycan array binding signal (z-score),Gal(a1-3)Gal(b1-4)GlcNAc,0.403
same,glycan array binding signal (z-score),[5],0.207
same,glycan array binding signal (z-score),[6],0.148
same,glycan array binding signal (z-score),[7],-0.209
same,glycan array binding signal (z-score),[8],-0.137
same,glycan array binding signal (z-score),Gal(a1-3)GalNAc,-0.158
same,glycan array binding signal (z-score),[9],-0.175
same,glycan array binding signal (z-score),[10],-0.207
same,glycan array binding signal (z-score),Gal(a1-4)Gal(b1-4)Glc,-0.238
same,glycan array binding signal (z-score),Gal(a1-4)Gal(b1-4)GlcNAc,-0.246
same,glycan array binding signal (z-score),[11],-0.178
same,glycan array binding signal (z-score),[12],1.26
same,glycan array binding signal (z-score),Gal(a1-4)GlcNAc,-0.248
same,glycan array binding signal (z-score),Gal(a1-6)Glc,-0.208
same,glycan array binding signal (z-score),Gal(b1-2)Gal,-0.201
same,glycan array binding signal (z-score),Gal(b1-3)Gal,-0.185
same,glycan array binding signal (z-score),Gal(b1-3)Gal(b1-4)GlcNAc,0.16
same,glycan array binding signal (z-score),[13],1.63
same,glycan array binding signal (z-score),Gal(b1-3)GalNAc,-0.221
same,glycan array binding signal (z-score),[14],1.58
same,glycan array binding signal (z-score),[15],2.17
same,glycan array binding signal (z-score),[16],-0.209
same,glycan array binding signal (z-score),[17],-0.083
same,glycan array binding signal (z-score),[18],-0.242
same,glycan array binding signal (z-score),Gal(b1-3)GlcNAc,-0.167
same,glycan array binding signal (z-score),[19],0.729
same,glycan array binding signal (z-score),[20],-0.26
same,glycan array binding signal (z-score),[21],-0.052
same,glycan array binding signal (z-score),[22],-0.63

# Source: the supplement of paper PMC8728848
